According to patent publication US20130337564A1, “Treatment of Pluripotent Cells” (Janssen Biotech, Inc., priority 2012, published 2013):
“And” between values parts separate entries of the source, which are not always exact repeats. Identical values can stand only once. At least one read-out could not be matched to a standard name with certainty.

Test system: cells expressing pluripotency markers derived from human embryonic stem cells
Test: MTS viability (toxicity) assay of cells expressing pluripotency markers
Type: cell-based
Design: Raw data (duplicate), first replicate / Average: unit not given here
Details: for Raw data (duplicate), first replicate / Raw data (duplicate), second replicate: MTS viability assay raw reading; for Raw data (duplicate), first replicate: replicate 1; for Raw data (duplicate), second replicate: replicate 2; for Average: average of duplicate MTS raw readings; for % Control: viability of cells expressing pluripotency markers, relative to control
Protocol: Derivation and maintenance of cells expressing pluripotency makers was conducted as has been described in Example 2. Cells were grown in DMEM:F12 supplemented with 2% FCS (Invitrogen), 100 ng/ml Activin A, 20 ng/ml Wnt-3a, and 50 ng/ml IGF (R&D Biosystems). Cells were seeded at a density of 10,000 cells/cm^2 on Falcon polystyrene flasks and grown in monolayer culture at 37° C., 5% CO2, low oxygen. After reaching 60-70% confluence, cells were passed by washing the monolayer with PBS and incubating with TrypLE (Invitrogen) for 3-5 minutes to allow detachment and single cell dispersal.
Screening was conducted using test compounds from a proprietary library of small molecules selected for their ability to inhibit GSK-3B enzyme activity. Compounds from this library were made available as 1 mM stocks, in a 96-well plate format in 50 mM HEPES, 30% DMSO. For assay, cells expressing pluripotency markers were washed, counted, and plated in normal culture medium at a seeding density of 20,000 cells per well in 96-well clear-bottom, dark-well plates (Costar). This seeding density was previously determined to yield optimal monolayer formation in overnight culture. On the following day, culture medium was removed, cell monolayers were rinsed three times with PBS, and test compounds were added to the wells in 80 μl aliquots, each diluted into assay medium at a final assay concentration of 10 μM. On day 2 of the assay, medium was removed from each well and replaced with a fresh aliquot of test compounds diluted into assay medium. Assay medium on days 1 and 2 of culture consisted of DMEM:F12 supplemented with 0.5% FCS and 100 ng/ml Activin A. On days 3 and 4 of culture, medium was removed from each well and replaced with DMEM:F12 supplemented with 2% FCS and 100 ng/ml Activin A (no test compound). On day 4 of assay, 15 μl of MTS (Promega) was added to each well and plates were incubated at 37° C. for 1.5 to 4 hours prior to reading optical density at 490 nm on a SpectraMax (Molecular Devices) instrument. Statistical measures consisting of mean, standard deviation, and coefficient of variation were calculated for each duplicate set. Toxicity was calculated for each test well relative to a positive control (wells treated with Activin A and Wnt3a on days 1 and 2 of culture).
A larger proportion of the compounds have minimal or no measurable toxicity in this cell-based assay.
A small panel of select compounds was repeat tested over a narrow dose titration range, again using cells expressing pluripotency markers in a similar assay as described above.

Compound	Raw data (duplicate), first replicate	Raw data (duplicate), second replicate	Average	% Control [%]
Cc1c[nH]c(-c2cnc(NCCNc3ccc(C#N)cn3)nc2-c2ccc(Cl)cc2Cl)n1 [Compound 221, 6-[(2-{[4-(2,4-Dichlorophenyl)-5-(4-methyl-1H-imidazol-2-yl)pyrimidin-2-yl]amino}ethyl)amino]pyridine-3-carbonitrile]	0.839 and 0.795	0.743 and 0.793	0.791 and 0.794	100.1
O=C1NC(=O)C(c2cn(CCCO)c3ncccc23)=C1c1cnccn1 [Compound 47, 3-[1-(3-Hydroxypropyl)-1H-pyrrolo[2,3-b]pyridin-3-yl]-4-pyrazin-2-yl-1H-pyrrole-2,5-dione]	0.853 and 0.823	0.858 and 0.774	0.855 and 0.798	95.6
